Experimental data: patent US20220119490A1 (Genentech, published 2022)
Each block holds one binder with its values, some of them ahead of it.

Legend:
[1] = molecular target: T1, SIGLEC8 expressed on cells (human, UniProt Q9NYZ4 17-499); experiment: cell surface interaction assay: streptavidin-tetramerized biotinylated ECD on transfected cells, immunofluorescence
T1 construct: whole, on cells; C-terminally tagged in the co-IP; also called SIGLEC8-HA
Source text: (§1) FIG. 3H is a schematic showing the design of the cell surface interaction assay.

[2] = molecular target: T2, SIGLEC6 expressed on cells (human, UniProt O43699 27-453); experiment: as above
T2 construct: whole, on cells
Source text: as §1

[3] = molecular target: T3, SIGLEC7 expressed on cells (human, UniProt Q9Y286 19-467); experiment: as above
T3 construct: whole, on cells; C-terminally tagged in the co-IP; also called SIGLEC7-HA
Source text: as §1

CD4-HA = molecular target: T4, CD4-HA (human, UniProt P01730); experiment: co-immunoprecipitation from co-transfected cells, IP anti-FLAG, western blot
T4 construct: full-length, tagged; partner tested in the NCR1-FLAG co-IP

T1 sequence (Q9NYZ4 17-499): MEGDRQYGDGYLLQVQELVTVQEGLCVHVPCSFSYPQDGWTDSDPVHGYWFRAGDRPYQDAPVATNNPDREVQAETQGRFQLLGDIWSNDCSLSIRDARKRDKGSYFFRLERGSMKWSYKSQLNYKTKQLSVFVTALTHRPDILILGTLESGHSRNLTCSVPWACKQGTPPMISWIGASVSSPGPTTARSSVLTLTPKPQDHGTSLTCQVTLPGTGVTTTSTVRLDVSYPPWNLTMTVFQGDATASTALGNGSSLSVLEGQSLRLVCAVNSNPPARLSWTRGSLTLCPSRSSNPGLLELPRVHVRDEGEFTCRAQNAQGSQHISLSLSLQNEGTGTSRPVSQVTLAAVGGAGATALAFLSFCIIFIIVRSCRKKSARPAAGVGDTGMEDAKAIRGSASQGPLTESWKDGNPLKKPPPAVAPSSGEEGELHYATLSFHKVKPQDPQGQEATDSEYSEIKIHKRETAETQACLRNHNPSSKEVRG
T2 sequence (O43699 27-453): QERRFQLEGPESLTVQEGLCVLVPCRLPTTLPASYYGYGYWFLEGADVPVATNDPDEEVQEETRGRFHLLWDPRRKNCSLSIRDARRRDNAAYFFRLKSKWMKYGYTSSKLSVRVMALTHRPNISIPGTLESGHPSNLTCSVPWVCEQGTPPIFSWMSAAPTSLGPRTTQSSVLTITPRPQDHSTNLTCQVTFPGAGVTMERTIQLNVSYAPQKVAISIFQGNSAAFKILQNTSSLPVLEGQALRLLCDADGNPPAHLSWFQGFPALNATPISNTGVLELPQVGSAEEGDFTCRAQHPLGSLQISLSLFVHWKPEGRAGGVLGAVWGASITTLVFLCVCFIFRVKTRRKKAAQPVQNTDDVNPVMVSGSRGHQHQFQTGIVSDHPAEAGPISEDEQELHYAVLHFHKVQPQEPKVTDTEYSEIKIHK
T3 sequence (Q9Y286 19-467): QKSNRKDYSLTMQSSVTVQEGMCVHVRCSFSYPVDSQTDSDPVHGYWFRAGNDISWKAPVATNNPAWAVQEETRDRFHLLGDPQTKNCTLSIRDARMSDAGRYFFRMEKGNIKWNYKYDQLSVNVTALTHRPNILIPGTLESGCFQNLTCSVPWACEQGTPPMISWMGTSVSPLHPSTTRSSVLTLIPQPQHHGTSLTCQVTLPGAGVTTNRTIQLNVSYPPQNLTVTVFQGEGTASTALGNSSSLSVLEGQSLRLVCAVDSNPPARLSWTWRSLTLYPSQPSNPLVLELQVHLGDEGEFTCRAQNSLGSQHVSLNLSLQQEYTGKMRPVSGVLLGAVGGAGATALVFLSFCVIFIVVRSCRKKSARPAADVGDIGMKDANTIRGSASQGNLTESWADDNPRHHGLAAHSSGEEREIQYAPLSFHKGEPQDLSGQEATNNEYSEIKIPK

binding result [1]: binds
binding result [2]: binds
binding result [3]: binds
B1: NCR1 extracellular domain (receptor, human, UniProt O76036 22-258, looked up)
chain: QQQTLPKPFIWAEPHFMVPKEKQVTICCQGNYGAVEYQLHFEGSLFAVDRPKPPERINKVQFYIPDMNSRMAGQYSCIYRVGELWSEPSNLLDLVVTEMYDTPTLSVHPGPEVISGEKVTFYCRLDTATSMFLLLKEGRSSHVQRGYGKVQAEFPLGPVTTAHRGTYRCFGSYNNHAWSFPSEPVKLLVTGDIENTSLAPEDPTFPADTWGTYLLTTETGLQKDHALWDHTAQNLLR
notes: extracellular domain; Soluble query, biotinylated and tetramerized with fluorescent streptavidin

binding result (CD4-HA): no binding
B2: NCR1 full-length (co-IP) (receptor, human, UniProt O76036 22-304, looked up)
chain: QQQTLPKPFIWAEPHFMVPKEKQVTICCQGNYGAVEYQLHFEGSLFAVDRPKPPERINKVQFYIPDMNSRMAGQYSCIYRVGELWSEPSNLLDLVVTEMYDTPTLSVHPGPEVISGEKVTFYCRLDTATSMFLLLKEGRSSHVQRGYGKVQAEFPLGPVTTAHRGTYRCFGSYNNHAWSFPSEPVKLLVTGDIENTSLAPEDPTFPADTWGTYLLTTETGLQKDHALWDHTAQNLLRMGLAFLVLVALVWFLVEDWLSRKRTRERASRASTWEGRRRLNTQTL
notes: whole, on cells; also called NCR1-FLAG
